# Where “and” joins values, the source holds several entries; their conditions need not be identical. Identical values can stand only once. The inconclusive results got no clear call from the source; some entries with a clear call stand among them for comparison. For some assays here: Where the call is inconclusive, the potency comes from a doubtful curve fit. Calls of active or inactive are those of the source. Unless noted, calls follow the shape of the dose curve; as a rule, active = well fitted curve in the direction sought with a large enough effect; inconclusive = small, poorly fitted or top-dose-only effect, or another doubt; inactive = no such curve, though single readings can be large; an effect the other way counts as inactive or inconclusive.
# Legend:
# [1] = target: Glucocorticoid receptor (Homo sapiens) (UniProt P04150); experiment: GR-EFC Redistribution (AID 451; calls by dose curve; also: potency is read from the fitted curve at half-maximal effect); settings: CHO-K1 GR-EFC translocation, beta-gal luminescence, 2 h
# Sequence of UniProt P04150 (P04150 whole entry, looked up, the tested form may be a part): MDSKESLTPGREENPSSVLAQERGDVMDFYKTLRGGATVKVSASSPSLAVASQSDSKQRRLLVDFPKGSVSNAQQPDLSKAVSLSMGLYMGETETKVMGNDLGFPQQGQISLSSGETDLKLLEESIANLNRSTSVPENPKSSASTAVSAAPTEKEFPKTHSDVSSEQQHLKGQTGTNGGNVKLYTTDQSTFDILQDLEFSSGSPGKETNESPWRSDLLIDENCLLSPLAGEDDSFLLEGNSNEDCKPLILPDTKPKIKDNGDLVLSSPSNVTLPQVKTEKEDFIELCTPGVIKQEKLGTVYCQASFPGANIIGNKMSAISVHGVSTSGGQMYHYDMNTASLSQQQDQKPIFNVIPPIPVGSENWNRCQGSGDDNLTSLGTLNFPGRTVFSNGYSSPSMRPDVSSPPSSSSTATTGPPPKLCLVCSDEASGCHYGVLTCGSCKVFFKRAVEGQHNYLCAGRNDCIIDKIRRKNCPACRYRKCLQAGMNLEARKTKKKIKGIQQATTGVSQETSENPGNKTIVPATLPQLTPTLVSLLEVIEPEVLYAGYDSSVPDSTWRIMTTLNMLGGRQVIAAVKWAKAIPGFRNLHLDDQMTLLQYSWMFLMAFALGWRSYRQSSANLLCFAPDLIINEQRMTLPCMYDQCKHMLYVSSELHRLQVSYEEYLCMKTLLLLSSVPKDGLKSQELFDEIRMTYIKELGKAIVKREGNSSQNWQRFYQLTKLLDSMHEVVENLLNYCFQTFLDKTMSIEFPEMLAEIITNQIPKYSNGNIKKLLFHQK
# Procedure, shortened: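 CHO-K1 cells stably expressing nuclear-localized β-gal enzyme acceptor and GR fused C-terminally to the enzyme donor fragment; ligand-driven nuclear translocation restores β-gal by complementation. Compounds titrated up to 46 uM final, 2 h at 37 °C; luminescence read.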
# [2] = target: Cytochrome P450 2D6 (Homo sapiens) (UniProt P10635); experiment: qHTS Assay for Inhibitors and Substrates of Cytochrome P450 2D6 (AID 891); settings: recombinant CYP2D6, luciferin-ME EGE luminescence; activity change, negative = inhibition: at 57.1 µM (top of the series);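 also: luciferin methyl ether substrate demethylated by CYP2D6 with NADPH regeneration; top concentration of the series differs between compounds; % is scaled to controls: 0 for no effect and ±100 for the full control effect; nearly all actives have a fitted effect of over 60% in size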
# Sequence of UniProt P10635 (P10635 whole entry, looked up): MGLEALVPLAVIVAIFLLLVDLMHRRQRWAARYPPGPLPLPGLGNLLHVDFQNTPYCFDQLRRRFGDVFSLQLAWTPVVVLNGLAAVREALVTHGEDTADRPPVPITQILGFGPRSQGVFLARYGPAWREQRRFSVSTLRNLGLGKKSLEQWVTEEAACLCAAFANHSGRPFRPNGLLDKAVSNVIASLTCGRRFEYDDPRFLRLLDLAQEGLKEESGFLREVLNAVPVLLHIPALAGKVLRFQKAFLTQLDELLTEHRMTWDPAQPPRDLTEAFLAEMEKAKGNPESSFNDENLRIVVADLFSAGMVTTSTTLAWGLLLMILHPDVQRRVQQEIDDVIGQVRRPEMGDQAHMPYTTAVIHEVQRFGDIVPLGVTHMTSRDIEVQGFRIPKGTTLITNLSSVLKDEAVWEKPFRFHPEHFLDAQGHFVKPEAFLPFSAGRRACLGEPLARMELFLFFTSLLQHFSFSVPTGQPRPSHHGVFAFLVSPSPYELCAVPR
# Procedure, shortened: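 Luminescent read-out of luciferin formed by 5 nM human CYP2D6 demethylating 30 uM Luciferin-ME EGE (Km level) over 60 min at room temperature after NADPH regeneration addition. Data normalized to full inhibition by 1.43 uM quinidine.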
# [3] = qHTS Assay for Identification of Small Molecule Antagonists for NFkB Signaling Pathway (AID 895; active = well fitted inhibition curve with a large enough effect in the signal ratio, with a control signal flat, not every such curve was filed as active; inconclusive = small, poorly fitted or top-dose-only effect, or effect the other way, or a change in a side signal; the % refers to the signal ratio; also: potency is read from the fitted curve at half-maximal effect; as to activity change, negative = inhibition: % is scaled to controls: 0 for no effect and ±100 for the full control effect); settings: NFkB beta-lactamase reporter cells, FRET ratio 460/530, stimulated with 10 pM TNF alpha; activity change, negative = inhibition: at 38.3 µM (top of the series)
# Procedure, shortened: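 NFkB-bla ME-180 cervical carcinoma cells with beta-lactamase reporter under NFkB response element; compounds added, then TNF alpha at 10 pM final (EC50), 5 h at 37 C. LiveBLAzer substrate 2 h, room temperature; emission 460/530 nm at 405 nm excitation.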
# [4] = qHTS Assay for Identification of Small Molecule Antagonists for Thrombopoietin (TPO) Signaling Pathway (AID 918); settings: TPO-dependent cell signaling reporter, antagonist mode; activity change, negative = inhibition: at 38.5 µM (top of the series); also: nearly all actives have a fitted effect of over 60% in size
# Procedure, shortened: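 Inhibition read as reduced luciferase luminescence after 24 h at 37 C in IL-3-deprived Ba/F3 cells carrying human TPO receptor and GPIIb-promoter reporter, stimulated with 26 pM TPO (final, its EC50) alongside compound.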
# [5] = target: Muscarinic acetylcholine receptor M1 (Rattus norvegicus) (UniProt P08482); experiment: qHTS Assay for Antagonists of Acetylcholine Muscarinic M1 Receptor: Kinetic Measurement of Intracellular Calcium Response (AID 943); settings: M1-expressing cells, kinetic intracellular calcium fluorescence; series mostly up to 35.3 µM; also: nearly all actives have a fitted effect of over 75% in size; also: potency is read from the fitted curve at half-maximal effect;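 as to activity change, negative = inhibition: Fluo-4 calcium signal as peak divided by basal fluorescence over 4 min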
# Sequence of UniProt P08482 (P08482 whole entry, looked up): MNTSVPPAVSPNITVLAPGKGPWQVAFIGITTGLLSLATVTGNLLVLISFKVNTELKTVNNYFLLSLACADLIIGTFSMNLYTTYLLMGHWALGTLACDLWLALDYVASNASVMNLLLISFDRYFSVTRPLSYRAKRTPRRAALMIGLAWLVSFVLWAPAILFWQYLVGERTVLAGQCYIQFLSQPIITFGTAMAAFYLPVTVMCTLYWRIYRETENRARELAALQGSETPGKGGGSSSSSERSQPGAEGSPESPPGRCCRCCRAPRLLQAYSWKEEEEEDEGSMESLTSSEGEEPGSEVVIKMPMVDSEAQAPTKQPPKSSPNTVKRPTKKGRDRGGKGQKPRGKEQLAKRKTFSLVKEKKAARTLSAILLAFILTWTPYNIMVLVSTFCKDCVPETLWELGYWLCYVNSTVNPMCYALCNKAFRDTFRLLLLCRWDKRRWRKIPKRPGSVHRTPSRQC
# Procedure, shortened: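 Antagonism measured as reduction of carbachol-evoked (EC80, 100 nM final) calcium flux in rat M1-CHO cells after 10 min compound exposure. Fluo-4 signal read kinetically; ratio of maximal to basal fluorescence.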
# [6] = target: Cytochrome P450 2C9 (Homo sapiens) (UniProt P11712); experiment: qHTS Assay for Inhibitors and Substrates of Cytochrome P450 2C9 (AID 883); settings: recombinant CYP2C9, luciferin-H luminescence, 60 min; activity change, negative = inhibition: at 57.1 µM (top of the series); also: potency is read from the fitted curve at half-maximal effect; nearly all actives have a fitted effect of over 60% in size
# Sequence of UniProt P11712 (P11712 whole entry, looked up): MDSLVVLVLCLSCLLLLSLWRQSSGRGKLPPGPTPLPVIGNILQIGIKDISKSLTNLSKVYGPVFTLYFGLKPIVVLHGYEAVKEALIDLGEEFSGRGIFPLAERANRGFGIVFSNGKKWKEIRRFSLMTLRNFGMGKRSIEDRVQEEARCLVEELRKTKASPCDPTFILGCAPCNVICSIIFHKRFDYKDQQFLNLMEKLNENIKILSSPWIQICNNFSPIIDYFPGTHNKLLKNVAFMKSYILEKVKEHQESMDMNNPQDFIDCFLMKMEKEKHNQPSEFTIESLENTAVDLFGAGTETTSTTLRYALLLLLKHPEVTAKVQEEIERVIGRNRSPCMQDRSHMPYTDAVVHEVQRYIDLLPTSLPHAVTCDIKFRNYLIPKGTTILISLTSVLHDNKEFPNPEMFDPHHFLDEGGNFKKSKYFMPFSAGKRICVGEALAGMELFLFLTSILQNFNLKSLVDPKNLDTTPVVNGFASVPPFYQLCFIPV
# Procedure, shortened: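 A luminogenic readout tracked human CYP2C9 (10nM) converting deoxyluciferin (100uM, at KM) in 25mM KPO4 during 60 min at 37C with regenerated NADPH. Values normalized to 57uM sulphaphenazole as complete inhibition.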
# [7] = target: Ubiquitin carboxyl-terminal hydrolase 1 (Homo sapiens) (UniProt O94782); experiment: Inhibitors of USP1/UAF1: Pilot qHTS (AID 504865); settings: purified USP1/UAF1, Ub-rhodamine cleavage fluorescence; series mostly up to 54.9 µM; also: potency is read from the fitted curve at half-maximal effect;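 also: rhodamine fluorescence freed from ubiquitin-rhodamine substrate followed over time; nearly all actives have a fitted effect of over 35% in size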; as to activity change, negative = inhibition: top concentration of the series differs between compounds; % is scaled to controls: 0 for no effect and ±100 for the full control effect
# Sequence of UniProt O94782 (O94782 whole entry, looked up): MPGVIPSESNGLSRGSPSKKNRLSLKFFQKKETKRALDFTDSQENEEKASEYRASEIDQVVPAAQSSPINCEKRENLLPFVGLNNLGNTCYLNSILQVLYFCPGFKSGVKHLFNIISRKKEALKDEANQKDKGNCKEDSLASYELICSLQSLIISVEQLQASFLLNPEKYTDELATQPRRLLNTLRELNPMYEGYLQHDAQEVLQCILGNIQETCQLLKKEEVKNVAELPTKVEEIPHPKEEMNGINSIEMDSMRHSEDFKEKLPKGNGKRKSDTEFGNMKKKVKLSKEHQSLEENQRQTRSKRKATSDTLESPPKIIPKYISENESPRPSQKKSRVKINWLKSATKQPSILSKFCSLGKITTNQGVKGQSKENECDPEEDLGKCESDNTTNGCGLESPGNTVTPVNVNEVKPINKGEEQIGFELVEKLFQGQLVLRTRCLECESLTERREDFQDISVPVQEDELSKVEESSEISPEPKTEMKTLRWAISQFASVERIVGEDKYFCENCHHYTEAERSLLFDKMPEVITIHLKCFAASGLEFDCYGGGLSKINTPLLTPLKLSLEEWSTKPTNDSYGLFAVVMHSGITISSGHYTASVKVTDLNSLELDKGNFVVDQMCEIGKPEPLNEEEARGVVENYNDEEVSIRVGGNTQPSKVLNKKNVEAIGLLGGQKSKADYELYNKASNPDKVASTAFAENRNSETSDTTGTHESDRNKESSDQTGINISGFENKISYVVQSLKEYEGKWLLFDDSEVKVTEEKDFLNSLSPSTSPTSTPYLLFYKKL
# Procedure, shortened: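 In 50mM HEPES pH 7.8 containing 0.5mM EDTA, 1mM TCEP, 0.1 mg/ml BSA and 0.01% Tween-20, 1nM USP1/UAF1 is exposed to compound for 15 min, then Ub-Rho (150nM final) is added and fluorescence is read over time.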
# [8] = qHTS Assay for Identification of Small Molecule Agonists for Thrombopoietin (TPO) Signaling Pathway (AID 917); settings: TPO signaling pathway reporter cells, agonist qHTS, stimulated with TPO at its EC50; activity, positive = activation: at 38.5 µM (top of the series); also: potency is read from the fitted curve at half-maximal effect
# Procedure, shortened: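 Cell-based luciferase reporter screen. Mouse Ba/F3 line stably expressing human TPO receptor; IL-3 removed overnight before plating. Co-treatment with compound and EC50 TPO (26 pM), 24 hrs at 37 C, then luminescence.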
# [9] = qHTS Assay for Identification of Small Molecule Agonists for NFkB Signaling Pathway (AID 928; calls by dose curve); settings: NFkB beta-lactamase reporter cells, blue/green ratio
# Procedure, shortened: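 Activators were sought with TNF alpha co-added at 10 pM final (its EC50) to beta-lactamase reporter cells. Cells were plated in OPTI MEM with 0.5% FBS and exposed for 5 hrs at 37 C. The FRET substrate ratio was read at 460 and 530 nm.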
# [10] = target: Muscarinic acetylcholine receptor M1 (Rattus norvegicus) (UniProt P08482); experiment: qHTS Assay for Antagonists of Acetylcholine Muscarinic M1 Receptor: Measurement of IP-One Response (AID 944); settings: CHO-M1 cells, IP-One HTRF, antagonist mode; series mostly up to 46.1 µM; also: potency is read from the fitted curve at half-maximal effect; nearly all actives have a fitted effect of over 75% in size
# [11] = AP1 Signaling Pathway (AID 357; active = well fitted curve in either direction with a large enough effect, not every such curve was filed as active; inconclusive = small, poorly fitted or top-dose-only effect, or another doubt;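 also: ME-180 reporter cells stimulated with EGF at its EC50 level; top concentration of the series differs between compounds; % is scaled to controls: 0 for no effect and ±100 for the full control effect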); settings: ME-180 AP-1-bla reporter, EGF-induced, beta-lactamase ratio, 5 h; at 17.2 µM (top of the series) unless noted
# Procedure, shortened: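 Titration-series screen for positive or negative modulators of EC50 EGF-induced signaling in ME-180 cells carrying an AP-1-driven beta-lactamase reporter. After 5 hours at 37 degrees Celsius, CCF4 460nm/530nm emission ratio gave %Activity; AC50 values derived.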
# [12] = Stat Signaling Pathway (AID 446; active = well fitted curve in either direction with a large enough effect, not every such curve was filed as active; inconclusive = small, poorly fitted or top-dose-only effect, or another doubt;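 also: ME-180 cervical cancer cells given 40 pM IL-6 alongside compound; SIE-controlled beta-lactamase reporter measured as 460/530 nm FRET emission ratio; top concentration of the series differs between compounds; % is scaled to controls: 0 for no effect and ±100 for the full control effect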); settings: ME-180 SIE beta-lactamase reporter, IL-6 stimulated, 5 h; at 7.69 µM (top of the series) unless noted
# Procedure, shortened: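 Emission at 460 and 530 nm (excitation 405 nm) reports SIE-controlled beta-lactamase in ME-180 cells. Cells received compound with 40 pM IL-6 for 5 hrs at 37 C; data scaled between 300 pM IL-6 and 125 nM JAK-inhibitor controls.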
# [13] = target: 3',5'-cyclic-AMP phosphodiesterase 4B (Homo sapiens) (UniProt Q07343); experiment: qHTS Assay for Inhibitors of PDE-IV (AID 607; active = well fitted activation curve with a large enough effect in the main read-out, with a control signal flat, not every such curve was filed as active; inconclusive = small, poorly fitted or top-dose-only effect, or effect the other way, or a change in a side signal; also: potency is read from the fitted curve at half-maximal effect); settings: HEK293 ACTOne CNG channel cells, membrane potential fluorescence; activation (PDE inhibition): at 22.9 µM (top of the series)
# Sequence of UniProt Q07343 (Q07343 whole entry, looked up): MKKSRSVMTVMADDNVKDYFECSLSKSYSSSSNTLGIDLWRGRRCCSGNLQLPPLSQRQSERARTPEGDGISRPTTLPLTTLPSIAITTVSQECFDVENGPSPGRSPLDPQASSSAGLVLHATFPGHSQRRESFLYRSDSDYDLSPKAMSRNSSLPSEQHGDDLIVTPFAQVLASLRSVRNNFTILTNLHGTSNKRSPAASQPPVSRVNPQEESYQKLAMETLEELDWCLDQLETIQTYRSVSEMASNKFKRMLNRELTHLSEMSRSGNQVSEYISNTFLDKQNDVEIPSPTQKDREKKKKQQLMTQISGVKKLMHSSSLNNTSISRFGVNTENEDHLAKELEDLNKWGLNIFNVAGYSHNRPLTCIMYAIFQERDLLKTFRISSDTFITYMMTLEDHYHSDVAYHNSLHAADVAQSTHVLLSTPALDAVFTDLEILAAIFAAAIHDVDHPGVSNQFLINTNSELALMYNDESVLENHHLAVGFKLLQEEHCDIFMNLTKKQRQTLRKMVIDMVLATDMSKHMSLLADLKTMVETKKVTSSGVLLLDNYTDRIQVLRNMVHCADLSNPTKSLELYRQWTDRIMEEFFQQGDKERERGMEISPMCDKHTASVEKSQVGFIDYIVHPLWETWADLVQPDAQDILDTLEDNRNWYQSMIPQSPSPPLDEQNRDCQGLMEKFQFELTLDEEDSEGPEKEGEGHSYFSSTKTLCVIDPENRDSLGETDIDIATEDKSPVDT
# Procedure, shortened: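 The readout is membrane depolarisation from a cAMP-sensing CNG channel, detected with a potential dye at ex 535/em 590. Cells were HEK293-derived (endogenous PDE-IV) at 1000 cells/well, titrated up to 22.9 uM final.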
# [14] = qHTS Assay for Identification of Small Molecule Agonists for Hypoxia Response Element Signaling Pathway (AID 914; active = well fitted activation curve with a large enough effect in the signal ratio, with a control signal flat, not every such curve was filed as active; inconclusive = small, poorly fitted or top-dose-only effect, or effect the other way, or a change in a side signal; the % refers to the signal ratio; also: potency is read from the fitted curve at half-maximal effect; as to activation: top concentration of the series differs between compounds; % of control where 0% means no effect); settings: ME-180 (cervical carcinoma) HRE-bla reporter, beta-lactamase ratio, CoCl2, 17 h; activation: stronger effect = higher value
# Procedure, shortened: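 qHTS titration; ME-180 HRE-bla cells; EC50 CoCl2 co-treatment, 17 h at 37 degrees Celsius; CCF4 dye, ex 405nm, em 460nm and 530nm; %Activity from ratio; AC50.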
# [15] = target: Cytochrome P450 3A4 (Homo sapiens) (UniProt P08684); experiment: qHTS Assay for Activators of Cytochrome P450 3A4 (AID 885); settings: recombinant CYP3A4, Luciferin-PPXE luminescence, 60 min; series mostly up to 57.1 µM; also: potency is read from the fitted curve at half-maximal effect; nearly all actives have a fitted effect of over 65% in size
# Sequence of UniProt P08684 (P08684 whole entry, looked up): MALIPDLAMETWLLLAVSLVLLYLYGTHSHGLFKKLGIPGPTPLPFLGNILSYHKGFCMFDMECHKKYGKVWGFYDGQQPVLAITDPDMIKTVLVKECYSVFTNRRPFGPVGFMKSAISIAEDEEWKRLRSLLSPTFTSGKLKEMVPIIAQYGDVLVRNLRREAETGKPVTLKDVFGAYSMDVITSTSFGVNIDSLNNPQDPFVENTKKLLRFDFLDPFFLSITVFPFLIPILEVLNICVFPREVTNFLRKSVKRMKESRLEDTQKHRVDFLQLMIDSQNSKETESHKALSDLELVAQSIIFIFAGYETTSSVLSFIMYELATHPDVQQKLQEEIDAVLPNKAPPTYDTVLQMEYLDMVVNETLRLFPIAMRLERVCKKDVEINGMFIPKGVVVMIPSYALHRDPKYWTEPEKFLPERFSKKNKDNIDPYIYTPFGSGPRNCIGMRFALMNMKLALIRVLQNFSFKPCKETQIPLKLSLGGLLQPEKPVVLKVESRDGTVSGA
# Procedure, shortened: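 Activators are scored by enhanced luminescence from CYP3A4 conversion of luciferin-PPXE (25uM, equal to KM) to luciferin, after 60 min at RT with an NADPH-regenerating system.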
# [16] = target: Cytochrome P450 2C19 (Homo sapiens) (UniProt P33261); experiment: qHTS Assay for Inhibitors and Substrates of Cytochrome P450 2C19 (AID 899); settings: recombinant CYP2C19, luciferin-H EGE luminescence; series mostly up to 11.4 µM; also: potency is read from the fitted curve at half-maximal effect; nearly all actives have a fitted effect of over 60% in size
# Sequence of UniProt P33261 (P33261 whole entry, looked up): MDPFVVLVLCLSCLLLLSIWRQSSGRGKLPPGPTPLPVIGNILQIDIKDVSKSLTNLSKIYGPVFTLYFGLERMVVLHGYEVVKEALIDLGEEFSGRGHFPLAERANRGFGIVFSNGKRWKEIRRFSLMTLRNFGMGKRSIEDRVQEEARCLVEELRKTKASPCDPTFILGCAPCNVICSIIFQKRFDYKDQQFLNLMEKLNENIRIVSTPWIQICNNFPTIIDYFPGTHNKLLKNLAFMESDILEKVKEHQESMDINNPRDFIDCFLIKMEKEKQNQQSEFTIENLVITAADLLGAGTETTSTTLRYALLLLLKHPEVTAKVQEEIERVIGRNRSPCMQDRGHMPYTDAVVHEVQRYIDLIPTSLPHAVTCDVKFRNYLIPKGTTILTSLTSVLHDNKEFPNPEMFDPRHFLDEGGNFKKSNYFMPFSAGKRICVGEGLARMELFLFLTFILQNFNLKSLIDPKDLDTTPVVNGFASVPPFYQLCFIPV
# Procedure, shortened: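 NADPH-dependent conversion of Luciferin-H EGE (10uM, at KM) by 5nM enzyme in 50mM KPO4, 60 min at 37C following 10 min compound preincubation. Stopped with luciferin detection buffer; luminescence read after 20 min.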
# Tags tell the direction and shape of the fitted curve or compound fluorescence and quenching.
structure (smiles),measurement,setting,value
CCCC[S@@](=N)(=O)CC[C@@H](N)C(=O)O,Potency,[1],inconclusive: 45.8 µM [single point]
same,Potency,[2],inactive
same,Potency,[3],"inconclusive: 3.5 nM [inhibitor, full curve, poor fit] and inconclusive: 2.8 nM [inhibitor, full curve, poor fit]"
same,"activity change, negative = inhibition",[4],inconclusive: -1.57% [phenotype inactive] and inconclusive: 11.1% [phenotype inactive]
same,Potency,[5],"inactive and inconclusive: 112 nM [inhibitor, full curve, poor fit]"
COc1cccc(-c2ccc3ncnc(NCc4cccnc4)c3c2)c1,Potency,[6],"inconclusive: 1.58 µM [inhibitor, single point]"
same,Potency,[7],inactive
CC[C@]1(O)C[C@H]2CN(CCc3c([nH]c4ccccc34)[C@](C(=O)OC)(c3cc4c(cc3OC)N(C=O)[C@H]3[C@@](O)(C(=O)OC)[C@H](OC(C)=O)[C@@]5(CC)C=CCN6CC[C@]43[C@H]65)C2)C1,Potency,[3],inactive
same,Potency,[8],"inconclusive: 1.26 µM [inhibitor, full curve]"
C#CCN1C(C)=C(C(=O)OC)[C@@H](c2cccc([N+](=O)[O-])c2)C(C(=O)OCC)=C1C,"activity change, negative = inhibition",[4],inconclusive: -23.6% [phenotype inactive]
same,Potency,[9],"inconclusive: 3.55 µM [inhibitor, full curve]"
same,Potency,[5],"inconclusive: 17.8 µM [inhibitor, partial curve, poor fit]"
same,Potency,[10],"inconclusive: 12.6 µM [inhibitor, partial curve, poor fit]"
CCNc1ncc2nc(-c3cccs3)c(=O)n(Cc3ccc(F)cc3)c2n1,Potency,[7],active: 20 µM
Cc1nc2cnc(N(C)C)nc2n(Cc2ccc(F)cc2)c1=O,"activity change, negative = inhibition",[11],inactive: 3.79% [at 7.69 µM]
same,"activity, negative = inhibition",[12],inconclusive: 30.2% [activator]
same,Potency,[13],"inconclusive: 10 µM [activator, partial curve]"
same,Potency,[14],"inconclusive: 5.01 µM [activator, single point]"
O=C(O)/C(=C\c1ccccc1)Cc1ccccc1,"activity change, negative = inhibition",[11],inactive: -5.32% [at 7.69 µM]
same,"activity, negative = inhibition",[12],inactive: 5.03%
same,Potency,[6],"inconclusive: 3.98 µM [inhibitor, partial curve]"
same,Potency,[15],"inconclusive: 3.16 µM [activator, single point]"
same,activation,[14],inconclusive: 4.32%
COc1ncc2nc(-c3cccs3)c(=O)n(CCc3ccccc3)c2n1,"activity change, negative = inhibition",[11],inconclusive: 32.1% [activator] [at 7.69 µM]
same,"activity, negative = inhibition",[12],inconclusive: 53.6% [activator]
same,Potency,[13],"inconclusive: 10 µM [activator, partial curve]"
same,Potency,[6],"inconclusive: 1.26 µM [inhibitor, partial curve]"
same,Potency,[16],"inconclusive: 2.51 µM [inhibitor, full curve]"
same,Potency,[14],active: 3.16 µM
COc1ccc(C(=O)N2CCC3(CC2)CN(c2ccc(-c4ccccc4)cc2)C3)cc1,"activity change, negative = inhibition",[11],inactive: -5.62% [at 7.69 µM]
same,"activity, negative = inhibition",[12],inconclusive: -36.8% [inhibitor]
same,Potency,[14],"inconclusive: 5.01 µM [inhibitor, single point]"
CCCn1c(SCC(N)=O)nc2c(c1=O)C1(CCCC1)Cc1ccccc1-2,"activity change, negative = inhibition",[11],inconclusive: -37.8% [inhibitor]
same,"activity, negative = inhibition",[12],inactive: -8.32% [at 17.2 µM]
same,Potency,[14],"inconclusive: 10 µM [activator, partial curve]"

# Reference: PubChem BioAssay (NCATS)
